This is one part of the list.
Assays:
HSkMC = human skeletal muscle cells; experiment: cytotoxicity call (relative viability < 0.9); details: 10 µM
HepG2 = experiment: cytotoxicity call (relative viability < 0.9); details: 10 µM
S. aureus RN4220 = experiment: growth inhibition call (relative growth <= 0.2); details: 50 µM

Structure (SMILES) | cytotoxicity call (HSkMC) | cytotoxicity call (HepG2) | growth inhibition call (S. aureus RN4220)
C[C@H](CO)N1C[C@H](C)[C@H](CN(C)C(=O)Nc2ccc(C(F)(F)F)cc2)OCCCC[C@H](C)Oc2ccc(NS(=O)(=O)c3ccc(Cl)cc3)cc2C1=O | inactive | active | inactive
C[C@H](CO)N1C[C@H](C)[C@@H](CN(C)S(=O)(=O)c2cccs2)Oc2c(NS(=O)(=O)c3ccccc3)cccc2C1=O | inactive | inactive | inactive
C[C@H]1CN([C@@H](C)CO)C(=O)c2cc(NS(=O)(=O)c3ccc(Cl)cc3)ccc2O[C@@H]1CN(C)Cc1ccc(Oc2ccccc2)cc1 | active | active | inactive
C/C(C[P+](c1ccccc1)(c1ccccc1)c1ccccc1)=N\NC(=O)CCCCCCC(=O)Nc1ccccc1O | inactive | inactive | inactive
CO[C@@H]1CN(C)C(=O)c2cc(NC(=O)c3ccc(F)cc3)ccc2OC[C@@H](C)N(C(=O)CN(C)C)C[C@@H]1C | inactive | inactive | inactive
C[C@@H]1CN([C@H](C)CO)S(=O)(=O)c2ccc(-c3cccc(C(=O)N(C)C)c3)cc2O[C@H]1CN(C)C(=O)Cc1ccccn1 | inactive | inactive | inactive
C[C@@H]1CN([C@H](C)CO)C(=O)c2cc(NS(=O)(=O)c3cn(C)cn3)ccc2O[C@@H](C)CCCCO[C@@H]1CN(C)S(=O)(=O)c1ccc(F)cc1 | inactive | inactive | inactive
Cc1noc(C)c1S(=O)(=O)Nc1ccc2c(c1)CC(=O)N([C@H](C)CO)C[C@H](C)[C@H](CN(C)C(=O)Nc1ccccc1)O2 | inactive | inactive | inactive
CCOc1ccc(N2C(=O)/C(=C/C=C/c3ccccc3OC)S(=O)(=O)[C@@H]2c2cccc([N+](=O)[O-])c2)cc1 | inactive | inactive | inactive
